Drawing on PubChem BioAssay AID1645887 (National Center for Advancing Translational Sciences (NCATS), 2021), this text covers activation for 22 molecules.

Several values for one entry are separate records, joined by “and”; a condition that tells them apart may be missing. Equal entries are not always repeated. Hit rate of the full screen: of about 16,000 compounds, about 40 (0.2%) were called active. Not shown: some 1% with an inconclusive outcome. The call rests on the fitted dose curve; in most records, active means well fitted activation curve with a large enough effect; inconclusive means small, poorly fitted or top-dose-only effect, or another doubt; inactive means no such curve, though single readings can be large or run the other way. The list shows a part of the results.
On the % scale 0 is the no-effect control and ±100 the full control effect.

The test addresses Rap guanine nucleotide exchange factor 4 (Homo sapiens) (UniProt Q8WZA2). In words: Validation qHTS for agonist of cAMP-regulated guanine nucleotide exchange factor 4 (EPAC2).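 Further: exchange makes BODIPY-GDP fluorescence drop when released from Rap1B; series mostly up to about 150 µM.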 The following applies: EPAC2 Rap1B BODIPY-GDP exchange, fluorescence; activation: stronger effect = higher value. In outline: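 Fluorescent exchange assay: 100 nM EPAC2 with 250 nM RAP1B-BODIPY-GDP and 50 uM GDP; compound added, 5 min at room temperature, then read (ex 480/em 540 nm) every 5 min for 30 min. Normalized to 6.5 mM cAMP agonist control.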
Sequence of UniProt Q8WZA2 (Q8WZA2 whole entry, looked up): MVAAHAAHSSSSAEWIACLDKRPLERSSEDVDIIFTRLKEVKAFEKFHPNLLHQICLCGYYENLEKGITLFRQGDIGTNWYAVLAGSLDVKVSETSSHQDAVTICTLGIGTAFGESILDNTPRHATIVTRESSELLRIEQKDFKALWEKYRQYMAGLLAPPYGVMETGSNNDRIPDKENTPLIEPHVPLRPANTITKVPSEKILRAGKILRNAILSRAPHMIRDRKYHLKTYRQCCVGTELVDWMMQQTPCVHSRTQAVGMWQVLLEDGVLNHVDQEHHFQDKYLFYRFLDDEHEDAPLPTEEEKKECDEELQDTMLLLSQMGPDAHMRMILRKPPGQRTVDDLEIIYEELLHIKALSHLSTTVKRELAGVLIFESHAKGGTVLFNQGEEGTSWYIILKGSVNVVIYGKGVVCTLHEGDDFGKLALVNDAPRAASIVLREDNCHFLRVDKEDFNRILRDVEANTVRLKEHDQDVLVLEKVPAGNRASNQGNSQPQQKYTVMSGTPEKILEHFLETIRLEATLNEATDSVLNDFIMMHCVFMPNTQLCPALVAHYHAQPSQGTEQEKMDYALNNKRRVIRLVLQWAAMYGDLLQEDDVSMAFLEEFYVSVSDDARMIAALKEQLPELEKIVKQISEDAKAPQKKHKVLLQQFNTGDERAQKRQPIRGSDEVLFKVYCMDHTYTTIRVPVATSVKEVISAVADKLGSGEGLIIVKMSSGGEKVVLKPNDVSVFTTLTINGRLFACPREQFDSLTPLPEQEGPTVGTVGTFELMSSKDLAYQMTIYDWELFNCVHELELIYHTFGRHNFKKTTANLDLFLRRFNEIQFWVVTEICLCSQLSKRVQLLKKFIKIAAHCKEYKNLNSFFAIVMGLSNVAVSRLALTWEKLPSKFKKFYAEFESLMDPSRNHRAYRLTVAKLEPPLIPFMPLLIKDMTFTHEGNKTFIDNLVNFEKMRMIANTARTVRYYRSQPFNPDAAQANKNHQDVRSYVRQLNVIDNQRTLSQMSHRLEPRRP
(qHTS replaces the single test concentration by a dilution series.)
For the molecule `COc1cc(OC)c(OC)cc1CN1CCCC(n2cc(C(=O)N3CCCCC3)nn2)C1` (configuration not stated), the activation is inactive: -9.46%.

For `NC(N)=NC(=O)Cc1c(Cl)cccc1Cl`, the activation is inactive: -11.9% and inactive: 1.12% and inactive: -47.7%. The same measure for `CC1(C)O[C@H]2CC(=O)OC[C@]23[C@H]2CC[C@@]4(C)[C@H](c5ccoc5)OC(=O)[C@H]5O[C@]54[C@]2(C)C(=O)C[C@@H]13`: inactive: -11.6%. As to `COc1cccc(-c2cncnc2N(C)Cc2ccco2)c1`, the activation is inactive: -1.11%. The same measure for `COc1ccc(CN2CCC(=O)N([C@H](CO)CC(C)C)CC2)cc1`: inactive: -11.9%; for `Cc1noc(C)c1-c1nc(Nc2ccncc2)c2ccccc2n1`: inactive: -14.4%. Next, `Cn1cc(-c2nc3cnc(N4CCNCC4)nc3n(CCc3ccccc3)c2=O)c2ccccc21`: inactive: -8.84%; `COc1ccccc1CNc1ncnc2ccc(-c3ccoc3)cc12`: inactive: 1.62%; `CCCCCCC/C=C\CCCCCCCCC(=O)O`: inactive: -86.8%.

As for `COC(=O)N1CCC2(CCN(C(=O)Nc3ccccc3)CC2)CC1`, the activation is inactive: -28.2%. The same measure for `COc1cccc(C(=O)NCC2Cc3cccc(-c4cccnc4)c3O2)c1` (configuration not stated): inactive: 1.53%.

Consider `O=C1CCN(Cc2ccc([N+](=O)[O-])cc2)CCN1[C@H](CO)Cc1ccccc1`, for which the activation was inactive: -10.8%. Regarding `Cn1cccc1C(=O)N1CCC2(CCN(C(=O)Nc3cccc(F)c3)CC2)CC1`, the activation is inactive: -14.7%. Take `O=C(N[C@H](CO)[C@H](O)c1ccc([N+](=O)[O-])cc1)C(Cl)Cl`: the activation is inactive: -19.1% and inactive: -11.7% and inactive: 0.352%.

Regarding `COc1cccc(Cc2nc3cccnc3n2C2CCN(C(=O)c3n[nH]c4c3CCCC4)CC2)c1`, the activation is inactive: -12.4%. As to `O=C(O)CCNC(=O)c1ccccc1`, the activation is inactive: -12%.

For `COC1/C=C/OC2(C)Oc3c(C)c(O)c4c(O)c(c(/C=N/N5CCN(C)CC5)c(O)c4c3C2=O)NC(=O)/C(C)=C/C=C/C(C)C(O)C(C)C(O)C(C)C(OC(C)=O)C1C` (configuration not stated), the activation was inactive: -13.6%. Consider `COCc1ccc(CN2Cc3cc(Cl)ccc3OC(C)C2)o1` (configuration not stated), for which the activation was inactive: 6.88%. As to `C/C(=C\c1ccco1)CN1CCOc2ccc(C(C)(O)COc3ccccc3)cc2C1` (configuration not stated), the activation is inactive: 5.68%. The same measure for `CCC[C@@H]1C[C@@H](C(=O)N[C@@H]([C@H]2O[C@H](SC)[C@H](O)[C@@H](O)[C@H]2O)[C@H](C)Cl)N(C)C1`: inactive: -11%; for `NC(C(=O)O)[C@H](O)C(=O)O` (some centres not stated): inactive: 11%; for `O=C(O)C1OC(O)C(O)C(O)C1O` (configuration not stated): inactive: -9.62%.
